Like-named read-outs stand apart in the source and are kept apart here. At least one structure is not confirmed: it was looked up by name or label, or the drawing left a doubt. Positions of bridges follow the written chain, without caps; N, C: chain ends. Non-standard residues stand in square brackets, D forms with d. Residues, ends and D or L forms follow the SMILES beside them. 1Nal = N[C@@H](Cc1cccc2ccccc12)C(=O)O; 2Nal = N[C@@H](Cc1ccc2ccccc2c1)C(=O)O
Target: T1, hVEGF-A (Homo sapiens, UniProt P15692)
T1 sequence (P15692 207-395): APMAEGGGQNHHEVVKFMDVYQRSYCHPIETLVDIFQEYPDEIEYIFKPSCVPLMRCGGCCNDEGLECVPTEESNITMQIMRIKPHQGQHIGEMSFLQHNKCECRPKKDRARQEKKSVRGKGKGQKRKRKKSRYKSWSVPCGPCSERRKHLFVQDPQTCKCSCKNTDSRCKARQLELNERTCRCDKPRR
Test: KDR-CHO VEGF assay to determine cellular IC50 (VEGF mediated Tyr phosphorylation of KDR)
Format: cell-based
Experimental: KDR-CHO cells (CHO cells stably transfected with gD tagged-KDR) were grown in cell growth medium (DMEM/Ham's F-12, 10% diafiltered FBS (GIBCO catalog no. 26400), 25 mM HEPES, 2 mM L-GLUTAMAX™). For VEGF stimulation assay, 5×10^4 cells/well were plated in 100 μl of cell plating medium (DMEM/Ham's F-12, 0.2% BSA, 0.25% diafiltered FBS, 25 mM HEPES, 2 mM L-GLUTAMAX™) in 96-well tissue culture plate and incubated at 37° C. overnight. The medium was replaced with 100 I1 of serum-free cell stimulation medium (DMEM/Ham's F-12, 0.5% BSA, 25 mM HEPES) and cells were incubated at 37° C. for 2 hr. One hour before stimulation, the medium was replaced with 50 I1 of serum-free cell stimulation medium. Concurrently, VEGF (50 ng/ml for hVEGF, 100 ng/ml for mVEGF and rVEGF) was pre-incubated with titrated amount of CKP or anti-VEGF in 50 μl of serum-free cell stimulation medium at 37° C. for 1 hour and added to the cells. The cells were stimulated for 15 min at 37 C and the medium is removed. The cells were lysed with 130 I1 of ice-cold cell lysis buffer (150 mM NaCl, 50 mM HEPES, 0.5% Triton-X 100, HALT protease and phosphatase inhibitor cocktail (ThermoFisher Scientific, Inc. catalog no. 78444), 5 mM EDTA). VEGF mediated Tyr phosphorylation of KDR was determined by ELISA-based assay. Briefly, MAXISORP™ 96 well plates (ThermoFisher Scientific, Inc. catalog no. 439454) were coated with 100 I1 of anti-gD antibody diluted in PBS (1 μg/ml) at 4° C. overnight and washed three times with washing buffer (PBS, 0.05% TWEEN®20, pH 7.4). The plates were blocked with 300 I1 of blocking buffer (PBS, 0.5% BSA) at room temperature for 1 hour followed by washing three times with washing buffer. The above KDR-CHO cell lysate (100 μl) was added to each well and incubated at room temperature for 2 hours. The plates were washed four times with washing buffer followed by incubation with 100 I1 of 0.5 μg/ml biotin-conjugated anti-phosphotyrosine (clone 4G10, Millipore catalog no. 16-103) in blocking buffer at room temperature for 2 hours. After washing four times, the plates were incubated with 100 I1 of HRP-conjugated streptavidin in blocking buffer at room temperature for 30 min. After washing four times, the plates were developed with 100 I1 of TMB substrate (BD Biosciences) at room temperature for 20-30 min and stopped by addition of 50 μl of H2SO4 solution. The optical density of each well was determined using a microplate reader set to 450 nm.

[1] = Table 38, F8Y and/or unnatural amino acid variants; read-out: Cellular IC50
[2] = read-out: Cellular IC50; Table 36, loop 3/loop 4 variants
[3] = read-out: Cellular IC50; Table 38, F8Y and/or unnatural amino acid variants

Row | SMILES | IC50 [1] [nM] | IC50 [2] [nM] | IC50 [3] [nM]
1 | CC[C@H](C)[C@H](NC(=O)[C@@H]1CSSC[C@H](NC(=O)CN)C(=O)N[C@@H](CC(N)=O)C(=O)N[C@@H]([C@@H](C)CC)C(=O)N[C@@H](CCSC)C(=O)N[C@@H](CC(C)C)C(=O)N2CCC[C@H]2C(=O)N[C@@H](Cc2ccccc2)C(=O)N[C@@H](Cc2c[nH]c3ccccc23)C(=O)NCC(=O)N[C@H]2CSSC[C@H](NC(=O)[C@H](CCC(=O)O)NC(=O)[C@H](Cc3ccccc3)NC(=O)[C@H](CC(=O)O)NC(=O)[C@H](CCCNC(=N)N)NC(=O)CNC2=O)C(=O)N[C@@H](CCSC)C(=O)N[C@@H](CCC(=O)O)C(=O)N[C@@H](CCC(N)=O)C(=O)N1)C(=O)N[C@H]1CSSC[C@@H](C(=O)NCC(=O)O)NC(=O)[C@H](CO)NC(=O)[C@H](CCC(N)=O)NC(=O)[C@H](Cc2ccc(O)cc2)NC(=O)[C@H](Cc2ccc(O)cc2)NC(=O)[C@H](CCC(N)=O)NC1=O [9.54.90.67] (H-GCNIMLPFWGCGRDFECMEQCICQYYQSCG-OH; disulfide 2-21, 11-17, 23-29; N-terminus and C-terminus assumed) | 1.1 | 1.1 | –
2 | CC[C@H](C)[C@@H]1NC(=O)[C@H](CC(N)=O)NC(=O)[C@@H](N)CSSC[C@@H](C(=O)N[C@H](C(=O)N[C@H]2CSSC[C@@H](C(=O)O)NC(=O)[C@H](CO)NC(=O)[C@H](CCC(N)=O)NC(=O)[C@H](Cc3ccc(O)cc3)NC(=O)[C@H](Cc3ccc(O)cc3)NC(=O)[C@H](CCC(N)=O)NC2=O)C(C)C)NC(=O)CNC(=O)[C@H](C)NC(=O)[C@H](CC(C)C)NC(=O)[C@@H]2CSSC[C@H](NC(=O)CNC(=O)[C@H](Cc3c[nH]c4ccccc34)NC(=O)[C@H](Cc3ccc(O)cc3)NC(=O)[C@@H]3CCCN3C(=O)[C@H](CC(C)C)NC(=O)[C@H](CCSC)NC1=O)C(=O)NCC(=O)N[C@@H](CCCNC(=N)N)C(=O)N[C@@H](CC(=O)O)C(=O)N[C@@H](Cc1ccccc1)C(=O)N[C@@H](CCC(=O)O)C(=O)N2 [9.54.90.F7Y.Δ2G] (H-CNIMLPYWGCGRDFECLAGCVCQYYQSC-OH; disulfide 1-20, 10-16, 22-28; N-terminus and C-terminus assumed) | – | – | 3.01
3 | CC[C@H](C)[C@@H]1NC(=O)[C@H](CC(N)=O)NC(=O)[C@@H](NC(=O)CN)CSSC[C@@H](C(=O)N[C@H](C(=O)N[C@H]2CSSC[C@@H](C(=O)NCC(=O)O)NC(=O)[C@H](CO)NC(=O)[C@H](CCC(N)=O)NC(=O)[C@H](Cc3ccc(O)cc3)NC(=O)[C@H](Cc3ccc(O)cc3)NC(=O)[C@H](CCC(N)=O)NC2=O)C(C)C)NC(=O)CNC(=O)[C@H](C)NC(=O)[C@H](CC(C)C)NC(=O)[C@@H]2CSSC[C@H](NC(=O)CNC(=O)[C@H](Cc3c[nH]c4ccccc34)NC(=O)[C@H](Cc3ccc(O)cc3)NC(=O)[C@@H]3CCCN3C(=O)[C@H](CC(C)C)NC(=O)[C@H](CCSC)NC1=O)C(=O)NCC(=O)N[C@@H](CCCNC(=N)N)C(=O)N[C@@H](CC(=O)O)C(=O)N[C@@H](Cc1ccccc1)C(=O)N[C@@H](CCC(=O)O)C(=O)N2 [9.54.90.F8Y] (H-GCNIMLPYWGCGRDFECLAGCVCQYYQSCG-OH; disulfide 2-21, 11-17, 23-29; N-terminus and C-terminus assumed) | 1.58 | – | –
4 | CCCC[C@@H]1NC(=O)[C@H]([C@@H](C)CC)NC(=O)[C@H](CC(N)=O)NC(=O)[C@@H](NC(=O)CN)CSSC[C@@H](C(=O)N[C@H](C(=O)N[C@H]2CSSC[C@@H](C(=O)NCC(=O)O)NC(=O)[C@H](CO)NC(=O)[C@H](CCC(N)=O)NC(=O)[C@H](Cc3ccc(O)cc3)NC(=O)[C@H](Cc3ccc(O)cc3)NC(=O)[C@H](CCC(N)=O)NC2=O)C(C)C)NC(=O)CNC(=O)[C@H](C)NC(=O)[C@H](CC(C)C)NC(=O)[C@@H]2CSSC[C@H](NC(=O)CNC(=O)[C@H](Cc3c[nH]c4ccccc34)NC(=O)[C@H](Cc3ccccc3)NC(=O)[C@@H]3CCCN3C(=O)[C@H](CC(C)C)NC1=O)C(=O)NCC(=O)N[C@@H](CCCNC(=N)N)C(=O)N[C@@H](CC(=O)O)C(=O)N[C@@H](Cc1ccccc1)C(=O)N[C@@H](CCC(=O)O)C(=O)N2 [9.54.90.M5.Nle] | – | – | 1.95
5 | CC[C@H](C)[C@@H]1NC(=O)[C@H](CC(N)=O)NC(=O)[C@@H](NC(=O)CN)CSSC[C@@H](C(=O)N[C@H](C(=O)N[C@H]2CSSC[C@@H](C(=O)NCC(=O)O)NC(=O)[C@H](CO)NC(=O)[C@H](CCC(N)=O)NC(=O)[C@H](Cc3ccc(O)cc3)NC(=O)[C@H](Cc3ccc(O)cc3)NC(=O)[C@H](CCC(N)=O)NC2=O)C(C)C)NC(=O)CNC(=O)[C@H](C)NC(=O)[C@H](CC(C)C)NC(=O)[C@@H]2CSSC[C@H](NC(=O)CNC(=O)[C@H](Cc3cccc4ccccc34)NC(=O)[C@H](Cc3ccccc3)NC(=O)[C@@H]3CCCN3C(=O)[C@H](CC(C)C)NC(=O)[C@H](CCSC)NC1=O)C(=O)NCC(=O)N[C@@H](CCCNC(=N)N)C(=O)N[C@@H](CC(=O)O)C(=O)N[C@@H](Cc1ccccc1)C(=O)N[C@@H](CCC(=O)O)C(=O)N2 [9.54.90.Naph1] (H-GCNIMLPF[1Nal]GCGRDFECLAGCVCQYYQSCG-OH; disulfide 2-21, 11-17, 23-29; N-terminus and C-terminus assumed) | – | – | 5.42
6 | CC[C@H](C)[C@@H]1NC(=O)[C@H](CC(N)=O)NC(=O)[C@@H](NC(=O)CN)CSSC[C@@H](C(=O)N[C@H](C(=O)N[C@H]2CSSC[C@@H](C(=O)NCC(=O)O)NC(=O)[C@H](CO)NC(=O)[C@H](CCC(N)=O)NC(=O)[C@H](Cc3ccc(O)cc3)NC(=O)[C@H](Cc3ccc(O)cc3)NC(=O)[C@H](CCC(N)=O)NC2=O)C(C)C)NC(=O)CNC(=O)[C@H](C)NC(=O)[C@H](CC(C)C)NC(=O)[C@@H]2CSSC[C@H](NC(=O)CNC(=O)[C@H](Cc3ccc4ccccc4c3)NC(=O)[C@H](Cc3ccccc3)NC(=O)[C@@H]3CCCN3C(=O)[C@H](CC(C)C)NC(=O)[C@H](CCSC)NC1=O)C(=O)NCC(=O)N[C@@H](CCCNC(=N)N)C(=O)N[C@@H](CC(=O)O)C(=O)N[C@@H](Cc1ccccc1)C(=O)N[C@@H](CCC(=O)O)C(=O)N2 [9.54.90.Naph2] (H-GCNIMLPF[2Nal]GCGRDFECLAGCVCQYYQSCG-OH; disulfide 2-21, 11-17, 23-29; N-terminus and C-terminus assumed) | – | – | 17.1
7 | CC[C@H](C)[C@H](NC(=O)[C@@H]1CSSC[C@H](NC(=O)CN)C(=O)N[C@@H](CC(=O)O)C(=O)N[C@@H](C(C)C)C(=O)N[C@@H](CCSC)C(=O)N[C@@H](CCC(N)=O)C(=O)N2CCC[C@H]2C(=O)N[C@@H](Cc2ccc(O)cc2)C(=O)N[C@@H](Cc2c[nH]c3ccccc23)C(=O)NCC(=O)N[C@H]2CSSC[C@H](NC(=O)[C@H](CC(=O)O)NC(=O)[C@H]([C@@H](C)CC)NC(=O)[C@H](CC(=O)O)NC(=O)[C@@H]3CCCN3C(=O)CNC2=O)C(=O)N[C@@H](CC(C)C)C(=O)N[C@@H](CO)C(=O)N[C@@H](CC(N)=O)C(=O)N1)C(=O)N[C@H]1CSSC[C@@H](C(=O)NCC(=O)O)NC(=O)[C@H](CO)NC(=O)[C@H](CC(N)=O)NC(=O)[C@H](Cc2ccc(O)cc2)NC(=O)[C@H](Cc2c[nH]c3ccccc23)NC(=O)[C@H](Cc2c[nH]cn2)NC1=O [9.63.12.12] (H-GCDVMQPYWGCGPDIDCLSNCICHWYNSCG-OH; disulfide 2-21, 11-17, 23-29; N-terminus and C-terminus assumed) | – | 0.56 | –
